The values below come from the supplement of paper PMC3334620.

Whole data set: some 33,000 sequences, median “E-score (-0.5 to 0.5)” near -0.053, cut for the highest 2% near 0.37. The list shows a part of the results.

Sequence of UniProt P0CE41 (P0CE41 whole entry, the tested form may be a part): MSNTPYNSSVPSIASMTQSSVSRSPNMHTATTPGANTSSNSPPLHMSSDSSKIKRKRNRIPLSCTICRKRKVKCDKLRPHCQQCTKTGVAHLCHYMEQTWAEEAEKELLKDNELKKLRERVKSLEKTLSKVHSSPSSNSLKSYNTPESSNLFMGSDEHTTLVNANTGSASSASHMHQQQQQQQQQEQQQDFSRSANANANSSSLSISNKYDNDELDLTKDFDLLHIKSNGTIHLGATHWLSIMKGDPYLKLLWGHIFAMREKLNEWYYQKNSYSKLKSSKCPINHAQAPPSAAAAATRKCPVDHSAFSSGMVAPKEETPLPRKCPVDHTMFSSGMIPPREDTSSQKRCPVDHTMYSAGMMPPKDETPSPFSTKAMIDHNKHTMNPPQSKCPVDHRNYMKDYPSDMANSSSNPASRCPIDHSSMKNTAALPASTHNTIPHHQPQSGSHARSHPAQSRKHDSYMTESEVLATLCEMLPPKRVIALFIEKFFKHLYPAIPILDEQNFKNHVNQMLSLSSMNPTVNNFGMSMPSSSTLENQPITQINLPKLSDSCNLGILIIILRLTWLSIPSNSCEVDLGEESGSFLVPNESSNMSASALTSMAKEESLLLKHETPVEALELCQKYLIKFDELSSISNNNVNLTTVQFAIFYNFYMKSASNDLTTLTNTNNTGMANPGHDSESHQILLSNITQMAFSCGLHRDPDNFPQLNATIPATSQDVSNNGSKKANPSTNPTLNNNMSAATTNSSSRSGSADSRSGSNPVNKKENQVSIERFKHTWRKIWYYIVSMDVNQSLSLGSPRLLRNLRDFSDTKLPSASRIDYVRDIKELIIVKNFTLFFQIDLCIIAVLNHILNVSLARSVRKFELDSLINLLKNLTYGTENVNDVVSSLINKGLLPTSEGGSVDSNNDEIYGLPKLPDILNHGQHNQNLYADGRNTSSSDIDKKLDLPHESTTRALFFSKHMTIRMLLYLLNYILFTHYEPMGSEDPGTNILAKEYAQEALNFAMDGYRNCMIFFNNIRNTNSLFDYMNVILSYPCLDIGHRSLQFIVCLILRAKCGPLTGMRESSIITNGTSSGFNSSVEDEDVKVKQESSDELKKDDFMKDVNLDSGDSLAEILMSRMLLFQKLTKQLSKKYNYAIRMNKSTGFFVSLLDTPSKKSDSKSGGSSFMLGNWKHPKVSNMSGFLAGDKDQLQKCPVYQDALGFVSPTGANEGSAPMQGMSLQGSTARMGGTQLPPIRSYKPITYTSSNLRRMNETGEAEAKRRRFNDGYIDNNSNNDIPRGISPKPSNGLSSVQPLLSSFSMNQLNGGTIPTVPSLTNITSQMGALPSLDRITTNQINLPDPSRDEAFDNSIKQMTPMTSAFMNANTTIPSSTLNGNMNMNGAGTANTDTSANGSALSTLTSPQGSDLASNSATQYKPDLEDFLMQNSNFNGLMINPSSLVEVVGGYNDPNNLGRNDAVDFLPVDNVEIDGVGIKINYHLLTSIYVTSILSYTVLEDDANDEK

The target of this test is Hap1 (UniProt P0CE41). Kind of test: PBM E-score (8-mer binding enrichment) (E-score (-0.5 to 0.5)); higher = stronger / more preferred TF binding; most listed sequences are background and not binding sites. The conditions noted are these: protein concentration: 200 nM; construct: GST-DNA-binding domain. In short, it runs like this:
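Detection of bound protein used fluorescent anti-GST, with scans normalised by masliner. The proteins were GST-tagged yeast transcription factors applied at about 100-200 nM to universal all-10-mer Agilent arrays made double-stranded by primer extension. Each ungapped eight-base word, pooled with its reverse complement, was scored with an E-score from the Universal PBM Analysis Suite.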
Consider TAATTGAA, for which the “PBM E-score” value was -0.0677.
The same measure for AGACGAAA: 0.0745.
Under CCAGCGCC stands -0.039; under AATCCCAT, -0.107.
The same measure for CGAGATCG: 0.177; for GATCCCGC: 0.136; for CCGAGTCC: 0.292.
Take AAGATGCA: the “PBM E-score” value is -0.256.
Under GGATACCC stands 0.0762; under CGCGTCCA, -0.0764.
Under CGCCTTTC stands -0.0256; under ATAAATGA, -0.117; under CCGGTAGG, 0.327.
Under GCTTCTCA stands -0.168; under CACTCGGC, 0.374; under AGTCTTTC, 0.0142.
For the sequence CCTCGGGA, the “PBM E-score” value was 0.189.
The same measure for AACTACTC: 0.0233.
Turning to AACTTTAC, the “PBM E-score” value turned out to be 0.00268.
The same measure for ATGCACCA: -0.181; for AAGCGAAT: 0.0788; for CGGGCAAC: 0.164.
Under GTACCACA stands -0.193; under CATAATAG, -0.00211; under AGCTTCAT, 0.0834.
The same measure for CGACCCGC: 0.0885.
As to CCATATCA, the “PBM E-score” value is -0.146.
The same measure for ACGCCTGG: -0.109; for GTTTTTTA: -0.00769.
Turning to CTTATAAA, the “PBM E-score” value amounted to 0.0157.
Regarding CGCAAACA, the “PBM E-score” value was found to be 0.0439.
The same measure for CCCCTTGC: -0.222; for CAGTGGCC: -0.0163; for CAAATAGC: -0.0282.
Under CTCCTGTA stands -0.0904; under ACGACCGC, 0.245; under GTCTAGTA, -0.176.
Regarding ATGGCTGC, the “PBM E-score” value was -0.119.
For the sequence CCTAATAC, the “PBM E-score” value amounted to 0.0411.
Turning to ACGGAACG, the “PBM E-score” value came to 0.195.
The same measure for ACTAGTTA: -0.226; for TCAGAAGA: -0.16.
With CAGAGCTG, the “PBM E-score” value is -0.19.
Under AATCAGAC stands -0.198.
Under CTGGGAAA stands -0.116; under AGTCATAA, 0.0105; under GGAGAAAA, 0.229.
For the sequence AGATGACA, the “PBM E-score” value was -0.241.
Take TCATCTAA: the “PBM E-score” value was -0.0762.
In the case of CCACAACG, the “PBM E-score” value is -0.0518.
In the case of TATCCGGA, the “PBM E-score” value amounted to 0.428.
Under GCCGTAAA stands 0.223; under CATCCACG, -0.138.
The same measure for CAATCGTG: -0.0221; for CCGGGGCG: 0.322.
The same measure for GCCATGCA: -0.0565.
Consider ATTCTTTA, for which the “PBM E-score” value was -0.202.
Regarding GGTCGAAC, the “PBM E-score” value was determined as 0.0804.
Under AAGGTCGA stands 0.00769.
Under GGTAGTAA stands -0.0482; under AGATTGCG, 0.156.
Under GTATCTCA stands -0.0446; under GCGCGCTA, 0.0841; under CACCGTCA, -0.116.
With ATTACCAC, the “PBM E-score” value is -0.015.
The same measure for AGGAAAAT: -0.153; for AATATATC: 0.26; for GAAGCTTA: -0.0838.
Consider AACTGACA, for which the “PBM E-score” value is -0.208.
The same measure for CTATGTAC: -0.211; for CGGCACCA: 0.133.
The same measure for GAGACGGC: -0.0132; for GATTAAGA: 0.052.
The same measure for AATACCAA: -0.0746.
For GGATCAGA, the “PBM E-score” value was -0.00626.
The same measure for AACTAATC: 0.0717.
The same measure for ACGCTCCC: -0.0376; for AAGCCATA: -0.223.
Under GAACGGTC stands 0.14.
For the sequence TCTTTTCA, the “PBM E-score” value is -0.162.
For the sequence AGGAGAAA, the “PBM E-score” value is -0.189.
The same measure for CTCTATGA: -0.311; for AAATTGCG: 0.0986.
Under AATAGACA stands -0.131; under GACCACTA, -0.0858.
On to GTGTACAA, for which the “PBM E-score” value came to 0.0266.
Under ACCGGAGT stands 0.4.
Under GGCTTTAC stands 0.255.
AGGTTTGG: the “PBM E-score” value is -0.179.
In the case of ACAAGTCC, the “PBM E-score” value amounted to 0.159.
The same measure for ATCTAGAT: -0.206; for CAGTGCCA: -0.228; for ATCAGTCA: -0.176.
As to ATGAACTC, the “PBM E-score” value was -0.0737.
